# Results as given in patent publication US8404683B2, “Inhibitors of the interaction between MDM2 and P53” (Janssen Pharmaceutical N.V., priority 2004, dated 2013).
# At least one read-out could not be matched to a standard name with certainty.
# Tested on: p53 in U87MG cells
# Experiment: p53 ELISA (preservation of p53 in U87MG cells)
# Format: cell-based, human
# Details: lowest dose giving at least 130% of the value for p53 present in the control; U87MG cells treated 16 hours
row,SMILES,p53-elisa LAD
1,COc1cc(NCCc2c[nH]c3ccccc23)ccc1Nc1ccncc1 [Compound 85],>1.0E−05
2,N#Cc1cc(Nc2ccc(NCCc3c[nH]c4ccccc34)cc2)ccn1 [Compound 86],>1.00E−05
3,c1ccc2c(CCNc3ccc(Nc4ccnc(-c5nnn[nH]5)c4)cc3)c[nH]c2c1 [Compound 87],>1.00E−05
4,CC(NCCNC(=O)OCc1ccccc1)c1cc(Nc2ccc(NCCc3c[nH]c4ccccc34)cc2)ccn1 (stereo not shown) [Compound 88],>1.00E−05
5,CC(NCCN)c1cc(Nc2ccc(NCCc3c[nH]c4ccccc34)cc2)ccn1 (stereo not shown) [Compound 89],3.00E−06
6,O=C(OCc1ccccc1)N1CCN(Cc2cc(Nc3ccc(NCCc4c[nH]c5ccccc45)cc3)ccn2)CC1 [Compound 90],>1.00E−05
7,c1ccc2c(CCNc3ccc(Nc4ccnc(CN5CCNCC5)c4)cc3)c[nH]c2c1 [Compound 91],>1.00E−05
8,O=C(NCCNCc1cc(Nc2ccc(NCCc3c[nH]c4ccccc34)cc2)ccn1)OCc1ccccc1 [Compound 92],>1.00E−05
9,NCCNCc1cc(Nc2ccc(NCCc3c[nH]c4ccccc34)cc2)ccn1 [Compound 93],>1.00E−05
10,c1ccc2c(CCNc3ccc(Nc4ccnc(CNCCN5CCNCC5)c4)cc3)c[nH]c2c1 [Compound 95],>1.00E−05
11,COC(=O)CCNCc1cc(Nc2ccc(NCCc3c[nH]c4ccccc34)cc2)ccn1 [Compound 96],>1.00E−05
12,O=C(O)CCNCc1cc(Nc2ccc(NCCc3c[nH]c4ccccc34)cc2)ccn1 [Compound 97],1.00E−06
13,COC(=O)COCc1cc(Nc2ccc(NCCc3c[nH]c4ccccc34)cc2)ccn1 [Compound 98],>1.00E−05
14,OCCOCc1cc(Nc2ccc(NCCc3c[nH]c4ccccc34)cc2)ccn1 [Compound 99],1.00E−05
15,CC(NCCCCO)c1cc(Nc2ccc(NCCc3c[nH]c4ccccc34)cc2)ccn1 (stereo not shown) [Compound 100],>1.00E−05
16,c1ccc(CC(CNc2ccc(Nc3ccncc3)cc2)c2c[nH]c3ccccc23)cc1 (stereo not shown) [Compound 101],>1.00E−05
17,CC(C)(C)OC(=O)N(CCc1cn(C(=O)OC(C)(C)C)c2ccccc12)c1ccc(Nc2ccnc(Cl)c2)cc1 [Compound 102],>1.00E−05
18,Clc1cc(Nc2ccc(NCCc3c[nH]c4ccccc34)cc2)ccn1 [Compound 103],1.00E−05
19,CC(O)c1cc(Nc2ccc(NCCc3c[nH]c4ccccc34)cc2)ccn1 (stereo not shown) [Compound 104],3.00E−06
20,CC(=O)c1cc(Nc2ccc(NCCc3c[nH]c4ccccc34)cc2)ccn1 [Compound 105],>1.00E−05
21,Cc1noc(-c2cc(Nc3ccc(NCCc4c[nH]c5ccccc45)cc3)ccn2)n1 [Compound 106],>1.00E−05
22,c1ccc(-c2noc(-c3cc(Nc4ccc(NCCc5c[nH]c6ccccc56)cc4)ccn3)n2)cc1 [Compound 107],>1.00E−05
23,c1ccc(Cc2noc(-c3cc(Nc4ccc(NCCc5c[nH]c6ccccc56)cc4)ccn3)n2)cc1 [Compound 108],>1.00E−05
24,COC(=O)c1cc(Nc2ccc(NCCc3c[nH]c4ccccc34)cc2)cc(C(=O)OC)n1 [Compound 109],1.00E−06
25,OC1CCc2c(Nc3ccc(NCCc4c[nH]c5ccccc45)cc3)ccnc21 (stereo not shown) [Compound 110],1.00E−07
26,OC1CCCc2c(Nc3ccc(NCCc4c[nH]c5ccccc45)cc3)ccnc21 (stereo not shown) [Compound 111],1.00E−07

row,SMILES,p53-elisa LAD
1,CCOc1cc(Nc2ccnc3c2CCC3O)ccc1NCCc1c[nH]c2cc(OC)ccc12 (stereo not shown) [Compound 112],1.00E−07
2,N#Cc1ccc2[nH]cc(C(O)C(=O)Nc3ccc(Nc4ccncc4)cc3)c2c1 (stereo not shown) [Compound 113],>1.00E−05
3,O=C(C(Cc1c[nH]c2ccccc12)Nc1ccc(Nc2ccncc2)cc1)N1CCN(CCO)CC1 (stereo not shown) [Compound 114],>1.00E−05
4,O=C(C(Cc1c[nH]c2ccccc12)Nc1ccc(Nc2ccncc2)cc1)N1CCN(CCOCCO)CC1 (stereo not shown) [Compound 116],>1.00E−05
5,c1ccc2c(CCNc3ccc(Nc4ncnc5[nH]ccc45)cc3)c[nH]c2c1 [Compound 117],>1.00E−05
6,O=C(NCCCCCO)C(Cc1c[nH]c2ccccc12)Nc1ccc(Nc2ccncc2)cc1 (stereo not shown) [Compound 118],>1.00E−05
7,c1ccc2c(CCNc3ccc(Nc4ccnnc4)cc3)c[nH]c2c1 [Compound 119],>1.00E−05
8,c1ccc2c(CNc3ccc(NCCc4c[nH]c5ccccc45)cc3)ccnc2c1 [Compound 120],>1.00E−05
9,c1cncc(CNc2ccc(NCCc3c[nH]c4ccccc34)cc2)c1 [Compound 121],>1.00E−05
10,Cc1cnccc1Cc1cnccc1Nc1ccc(NCCc2c[nH]c3ccccc23)cc1 [Compound 125],>1.00E−05
11,CCOC(=O)/C=C/c1cnccc1Nc1ccc(NCCc2c[nH]c3ccccc23)cc1 [Compound 126],>1.00E−05
12,CCC(O)c1cnccc1Nc1ccc(NCCc2c[nH]c3ccccc23)cc1 (stereo not shown) [Compound 127],>1.00E−05
13,CCC(O)(CC)c1cc(Nc2ccc(NCCc3c[nH]c4ccccc34)cc2)ccn1 [Compound 128],>1.00E−05
14,CS(=O)(=O)NCc1cc(Nc2ccc(NCCc3c[nH]c4ccccc34)cc2)ccn1 [Compound 129],3.00E−06
15,O=C(NCc1cc(Nc2ccc(NCCc3c[nH]c4ccccc34)cc2)ccn1)C1CC1 [Compound 130],>1.00E−05
16,O=C(CCc1ccccc1)NCc1cc(Nc2ccc(NCCc3c[nH]c4ccccc34)cc2)ccn1 [Compound 131],>1.00E−05
17,CCC(=O)NCc1cc(Nc2ccc(NCCc3c[nH]c4ccccc34)cc2)ccn1 [Compound 132],>1.00E−05
18,CCOCc1cc(Nc2ccc(NCCc3c[nH]c4ccccc34)cc2)ccn1 [Compound 134],>1.00E−05
19,OCc1cc(Nc2ccc(NCCc3c[nH]c4ccccc34)cc2)cc(CO)n1 [Compound 135],1.00E−06
20,OC(c1cc(Nc2ccc(NCCc3c[nH]c4ccccc34)cc2)ccn1)C1CC1 (stereo not shown) [Compound 136],>1.00E−05
21,CC(C)C(O)c1cc(Nc2ccc(NCCc3c[nH]c4ccccc34)cc2)ccn1 (stereo not shown) [Compound 137],>1.00E−05
22,CC(C)(C)C(O)c1cc(Nc2ccc(NCCc3c[nH]c4ccccc34)cc2)ccn1 (stereo not shown) [Compound 138],>1.00E−05
23,CCOc1cc(Nc2ccnc(C(C)(C)O)c2)ccc1NCCc1c[nH]c2cc(OC)ccc12 [Compound 139],>1.00E−05
24,CC(NCc1ccccc1)c1cc(Nc2ccc(NCCc3c[nH]c4ccccc34)cc2)ccn1 (stereo not shown) [Compound 140],>1.00E−05
25,CC(N)c1cc(Nc2ccc(NCCc3c[nH]c4ccccc34)cc2)ccn1 (stereo not shown) [Compound 141],1.00E−05
26,CNC(C)c1cc(Nc2ccc(NCCc3c[nH]c4ccccc34)cc2)ccn1 (stereo not shown) [Compound 142],3.00E−06

row,SMILES,p53-elisa LAD
1,CCNC(C)c1cc(Nc2ccc(NCCc3c[nH]c4ccccc34)cc2)ccn1 (stereo not shown) [Compound 143],>1.00E−05
2,COC(=O)CCNC(C)c1cc(Nc2ccc(NCCc3c[nH]c4ccccc34)cc2)ccn1 (stereo not shown) [Compound 146],>1.00E−05
3,CC(NCCO)c1cc(Nc2ccc(NCCc3c[nH]c4ccccc34)cc2)ccn1 (stereo not shown) [Compound 147],>1.00E−05
4,CC(NCCCc1ccccc1)c1cc(Nc2ccc(NCCc3c[nH]c4ccccc34)cc2)ccn1 (stereo not shown) [Compound 148],3.00E−07
5,CCOC(C)c1cc(Nc2ccc(NCCc3c[nH]c4ccccc34)cc2)ccn1 (stereo not shown) [Compound 149],>1.00E−05
6,COC(C)c1cc(Nc2ccc(NCCc3c[nH]c4ccccc34)cc2)ccn1 (stereo not shown) [Compound 150],1.00E−06
7,CC(=O)OCc1cc(Nc2ccc(NCCc3c[nH]c4ccccc34)cc2)ccn1 [Compound 151],1.00E−06
8,OCCNCc1cc(Nc2ccc(NCCc3c[nH]c4ccccc34)cc2)ccn1 [Compound 152],>1.00E−05
9,c1ccc2c(CCNc3ccc(Nc4ccnc(CNCCN5CCOCC5)c4)cc3)c[nH]c2c1 [Compound 153],>1.00E−05
10,CNCc1cc(Nc2ccc(NCCc3c[nH]c4ccccc34)cc2)ccn1 [Compound 154],>1.00E−05
11,CCNCc1cc(Nc2ccc(NCCc3c[nH]c4ccccc34)cc2)ccn1 [Compound 155],>1.00E−05
12,OCCCNCc1cc(Nc2ccc(NCCc3c[nH]c4ccccc34)cc2)ccn1 [Compound 156],>3.00E−06
13,N#CCNCc1cc(Nc2ccc(NCCc3c[nH]c4ccccc34)cc2)ccn1 [Compound 157],>1.00E−05
14,CN(C)Cc1cc(Nc2ccc(NCCc3c[nH]c4ccccc34)cc2)ccn1 [Compound 158],>1.00E−05
15,c1ccc2c(CCNc3ccc(Nc4ccnc(CN5CCOCC5)c4)cc3)c[nH]c2c1 [Compound 159],>1.00E−05
16,CN1CCN(Cc2cc(Nc3ccc(NCCc4c[nH]c5ccccc45)cc3)ccn2)CC1 [Compound 160],>1.00E−05
17,CCN(CC)Cc1cc(Nc2ccc(NCCc3c[nH]c4ccccc34)cc2)ccn1 [Compound 161],>1.00E−05
18,N#CCCNCc1cc(Nc2ccc(NCCc3c[nH]c4ccccc34)cc2)ccn1 [Compound 162],>1.00E−05
19,c1ccc(CCNCc2cc(Nc3ccc(NCCc4c[nH]c5ccccc45)cc3)ccn2)cc1 [Compound 163],>1.00E−05
20,c1ccc(CCCNCc2cc(Nc3ccc(NCCc4c[nH]c5ccccc45)cc3)ccn2)cc1 [Compound 164],>1.00E−05
21,OCCCCNCc1cc(Nc2ccc(NCCc3c[nH]c4ccccc34)cc2)ccn1 [Compound 165],3.00E−06
22,c1ccc2c(CCNc3ccc(Nc4ccnc(CNCCCN5CCOCC5)c4)cc3)c[nH]c2c1 [Compound 166],>1.00E−05
23,c1ccc(COCc2cc(Nc3ccc(NCCc4c[nH]c5ccccc45)cc3)ccn2)cc1 [Compound 167],>1.00E−05
24,c1ccc(CNCc2cc(Nc3ccc(NCCc4c[nH]c5ccccc45)cc3)ccn2)cc1 [Compound 168],>1.00E−05
